Data on 28 compounds can be found in the supplement of paper PMC10037445.

Test [1] deals with RAW-Dual. As to the kind of experiment: IRF Lucia reporter activity, fold change vs agonist alone; higher = enhanced IRF activity. To be noted: library stock concentration (final ~1000-fold dilution): 10 mM, agonist: MPLA (TLR4) […]. The gist of the method:
(§1)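 RAW-Dual macrophages were seeded in DMEM at 50,000 cells/well in 384-well plates, given 50 nL of library stock by pin tool, and given a PRR agonist 1 h later. Plates were held at 37 °C, 5% CO2 for 20 hours, after which supernatant was read for IRF by QuantiLuc luminescence and for NF-κB by QuantiBlue absorbance at 620 nm. Reporter activity is expressed as fold change over wells that received agonist alone. A well was called cytotoxic when IncuCyte confluency fell below 70% of agonist controls in both mask sets.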

Test [2] concerns RAW-Dual. As to the kind of experiment: IRF Lucia reporter activity, fold change vs agonist alone; cytotoxicity flag (confluency mask): not cytotoxic; higher = enhanced IRF activity. The gist of the method: as §1
Test [3] concerns RAW-Dual. As to the kind of experiment: IRF Lucia reporter activity, fold change vs agonist alone; cytotoxicity flag (confluency mask): cytotoxic (confluency <70% of control); higher = enhanced IRF activity. The gist of the method: as §1
[4] abbreviates: cytotoxicity flag (confluency mask): not cytotoxic.
Setting [5] is: agonist: 3'3'-cGAMP (STING) 10 ug/mL.
[6] abbreviates: cytotoxicity flag (confluency mask): cytotoxic (confluency <70% of control).

Whole data set: some 2,900 compounds, median “IRF Lucia reporter activity, fold change vs agonist alone” near 0.9, cut for the highest 2% near 2.8. Some of the results follow.

With `O=c1c(OC2OC(CO)C(O)C(O)C2O)c(-c2ccc(O)c(O)c2)oc2cc(O)cc(O)c12` (centres undefined), in the test on RAW-Dual [1] (setting [4]), the “IRF Lucia reporter activity” value was determined as 1.02. As to `O=c1c(OC2OC(CO)C(O)C(O)C2O)c(-c2ccc(O)c(O)c2)oc2cc(O)cc(O)c12` (centres undefined) (library stock concentration (final ~1000-fold dilution): 10 mM), the “IRF Lucia reporter activity” value with RAW-Dual [2] (setting [5]) amounted to 1.06; with RAW-Dual [2] (agonist: LPS (TLR4) 0.1 ug/mL) it was 0.986. For `Clc1ccc(Cn2c(CN3CCCC3)nc3ccccc32)cc1` (library stock concentration (final ~1000-fold dilution): 10 mM), in that order: 1.02 and 0.801. With `Clc1ccc(Cn2c(CN3CCCC3)nc3ccccc32)cc1`, the “IRF Lucia reporter activity” value with RAW-Dual [1] (setting [4]) came to 1.05. Consider `Oc1ccc2ccccc2c1SSc1c(O)ccc2ccccc12` (library stock concentration (final ~1000-fold dilution): 10 mM), for which the results for the “IRF Lucia reporter activity” value in the test on RAW-Dual [2] (setting [5]) and with RAW-Dual [2] (agonist: LPS (TLR4) 0.1 ug/mL) were 0.995 and 1.07, respectively.

Consider `Oc1ccc2ccccc2c1SSc1c(O)ccc2ccccc12`, for which, in the test with RAW-Dual [1] (setting [4]), the “IRF Lucia reporter activity” value came to 1.02. Same read-out and setting: then `COc1cc2nc(N(C)CCCNC(=O)C3CCCO3)nc(N)c2cc1OC` (centres undefined), with 1.09. Consider `COc1cc2nc(N(C)CCCNC(=O)C3CCCO3)nc(N)c2cc1OC` (centres undefined) (library stock concentration (final ~1000-fold dilution): 10 mM), for which the figures for the “IRF Lucia reporter activity” value in the test with RAW-Dual [2] (setting [5]) and in the test with RAW-Dual [2] (agonist: LPS (TLR4) 0.1 ug/mL) were 0.589 and 0.979, respectively. For `CCOC(=O)COc1ccc(/C=C2\SC(=S)NC2=O)cc1OC` (library stock concentration (final ~1000-fold dilution): 10 mM), in that order: 0.652 and 0.528. As to `CC(CCc1ccccc1)NCC(O)c1ccc(O)c(C(N)=O)c1.Cl` (centres undefined), in the test on RAW-Dual [1] (setting [4]), the “IRF Lucia reporter activity” value was determined as 1.02. On to `CC(CCc1ccccc1)NCC(O)c1ccc(O)c(C(N)=O)c1.Cl` (centres undefined) (library stock concentration (final ~1000-fold dilution): 10 mM), for which the “IRF Lucia reporter activity” value worked out at 1.08 in the test with RAW-Dual [2] (setting [5]) and 0.97 with RAW-Dual [2] (agonist: LPS (TLR4) 0.1 ug/mL). Take `CCCCc1nc2cc(/C=C/C(=O)NO)ccc2n1CCN(CC)CC` (library stock concentration (final ~1000-fold dilution): 10 mM): the “IRF Lucia reporter activity” value in the test on RAW-Dual [3] (setting [5]) was determined as 0.0582; in the test with RAW-Dual [3] (agonist: LPS (TLR4) 0.1 ug/mL), 0.291. Turning to `CCCCc1nc2cc(/C=C/C(=O)NO)ccc2n1CCN(CC)CC`, in the test on RAW-Dual [1] (setting [6]), the “IRF Lucia reporter activity” value was 0.241. Same read-out and setting: then `CC(C)c1cc(-c2n[nH]c(=O)n2-c2ccc3c(ccn3C)c2)c(O)cc1O`, with 1.07. As for `CC(C)c1cc(-c2n[nH]c(=O)n2-c2ccc3c(ccn3C)c2)c(O)cc1O` (library stock concentration (final ~1000-fold dilution): 10 mM), the “IRF Lucia reporter activity” value came out at 0.435 in the test with RAW-Dual [3] (setting [5]) and 0.585 in the test on RAW-Dual [3] (agonist: LPS (TLR4) 0.1 ug/mL). For `NS(=O)(=O)OC[C@H]1C[C@@H](Nc2ccnc3cc(-c4cccc(SC(F)(F)F)c4)nn23)[C@H](O)[C@@H]1O` (library stock concentration (final ~1000-fold dilution): 10 mM), in that order: 0.036 and 0.0261.

Take `NCC(O)(c1ccc(Cl)cc1)c1ccc(-c2cn[nH]c2)cc1` (centres undefined) (library stock concentration (final ~1000-fold dilution): 10 mM): the “IRF Lucia reporter activity” value in the test with RAW-Dual [2] (setting [5]) is 0.154; with RAW-Dual [2] (agonist: LPS (TLR4) 0.1 ug/mL), 0.324. Turning to `NCC(O)(c1ccc(Cl)cc1)c1ccc(-c2cn[nH]c2)cc1` (centres undefined), in the test with RAW-Dual [1] (setting [4]), the “IRF Lucia reporter activity” value amounted to 0.269. On to `COC1CCC(N2C(=O)CNc3ncc(-c4ccc(C(C)(C)O)nc4)nc32)CC1` (centres undefined) (library stock concentration (final ~1000-fold dilution): 10 mM), for which the entries for the “IRF Lucia reporter activity” value with RAW-Dual [2] (setting [5]) and with RAW-Dual [2] (agonist: LPS (TLR4) 0.1 ug/mL) were 0.15 and 0.145, respectively. For the compound `CN1C(=O)C(NC(=O)c2n[nH]c(Cc3ccccc3)n2)COc2ccccc21` (centres undefined) (library stock concentration (final ~1000-fold dilution): 10 mM), the “IRF Lucia reporter activity” value amounted to 0.866 with RAW-Dual [2] (setting [5]) and 0.968 with RAW-Dual [2] (agonist: LPS (TLR4) 0.1 ug/mL).

For the compound `CCCc1nn(C)c2c(=O)[nH]c(-c3cc(S(=O)(=O)N4CCN(C)CC4)ccc3OCC)nc12.CS(=O)(=O)O` (library stock concentration (final ~1000-fold dilution): 10 mM), the “IRF Lucia reporter activity” value in the test with RAW-Dual [2] (setting [5]) was determined as 1.08; in the test on RAW-Dual [2] (agonist: LPS (TLR4) 0.1 ug/mL), 0.86. Regarding `CCCc1nn(C)c2c(=O)[nH]c(-c3cc(S(=O)(=O)N4CCN(C)CC4)ccc3OCC)nc12.CS(=O)(=O)O`, the “IRF Lucia reporter activity” value with RAW-Dual [1] (setting [4]) stood at 0.997. For `CCC1OC(=O)C(C)(F)C(=O)C(C)C(OC2OC(C)CC(N(C)C)C2O)C(C)(OC)CC(C)C(=O)C(C)C2N(CCCCn3cc(-c4cccc(N)c4)nn3)C(=O)OC12C` (centres undefined) (library stock concentration (final ~1000-fold dilution): 10 mM), the “IRF Lucia reporter activity” value came to 1.18 in the test on RAW-Dual [2] (setting [5]) and 2.35 with RAW-Dual [2] (agonist: LPS (TLR4) 0.1 ug/mL). For `CCC1OC(=O)C(C)(F)C(=O)C(C)C(OC2OC(C)CC(N(C)C)C2O)C(C)(OC)CC(C)C(=O)C(C)C2N(CCCCn3cc(-c4cccc(N)c4)nn3)C(=O)OC12C` (centres undefined), in the test on RAW-Dual [1] (setting [4]), the “IRF Lucia reporter activity” value is 1.72. For the compound `O=C1c2ccccc2C(=O)C1c1ccc(Cl)cc1` (library stock concentration (final ~1000-fold dilution): 10 mM), the “IRF Lucia reporter activity” value in the test with RAW-Dual [2] (setting [5]) came out at 1.02; with RAW-Dual [2] (agonist: LPS (TLR4) 0.1 ug/mL), 0.944.

As to `O=C1c2ccccc2C(=O)C1c1ccc(Cl)cc1`, the “IRF Lucia reporter activity” value in the test with RAW-Dual [1] (setting [4]) was found to be 0.984.

Consider `Cc1cc(C)c(-c2csc(NC(=O)c3ccccc3)n2)c(C)c1` (library stock concentration (final ~1000-fold dilution): 10 mM), for which the “IRF Lucia reporter activity” value came out at 1.75 with RAW-Dual [2] (setting [5]) and 0.664 in the test with RAW-Dual [2] (agonist: LPS (TLR4) 0.1 ug/mL). With `Cc1cc(C)c(-c2csc(NC(=O)c3ccccc3)n2)c(C)c1`, the “IRF Lucia reporter activity” value in the test with RAW-Dual [1] (setting [4]) was 1.23.
